In PubChem BioAssay AID1345083 (National Center for Advancing Translational Sciences (NCATS), 2018):
Out of some 94,000 compounds screened, about 6,200 (6.6%) were called active. The shares of active, inactive and inconclusive entries below differ from those in the screen. Calls follow the shape of the dose curve; as a rule, active = well fitted inhibition curve with a large enough effect; inconclusive = small, poorly fitted or top-dose-only effect; inactive = flat fitted curve, though single readings scatter. Where the call is inconclusive, the potency comes from a doubtful curve fit.

Assay: Cytotoxic Profiling in HEK 293 Cell Line of Diverse Libraries Using Quantitative High-Throughput Screening; also: nearly all actives have a fitted effect of over 60% in size
Settings: HEK 293 viability, ATP luminescence (CellTiter-Glo), 48-72 h; activity change, negative = cytotoxicity: at 115 µM (top of the series) unless noted; series mostly up to 115 µM
Summary of the method: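 Luminescence from cellular ATP, measured with CellTiter-Glo, indicates HEK 293 viability. Cells plated at 250 cells/well are treated with compound for 48 or 72 hr at 37 degree Celsius before reagent addition.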
% is scaled to controls: 0 for no effect and ±100 for the full control effect; potency is read from the fitted curve at half-maximal effect; tags tell the direction and shape of the fitted curve.

SMILES	Potency	activity change, negative = cytotoxicity	outcome
CC(C)(C)c1cc(C(=O)NCc2cccnc2)nn2cccc12	inconclusive: 56.2 µM [inhibitor, partial curve, poor fit]		
Cc1nn(C(=O)CCC(=O)N2CCCC(c3nc(C4CCOCC4)no3)C2)c2ccccc12 (stereo unspecified)	inconclusive: 89.1 µM [inhibitor, partial curve]		
O=c1c2nc(-c3cccc(O)c3)ccc2ncn1C1CC1		inactive: -28.5% [at 230 µM]	
O=C(NC1CC1)c1ccc2oc(-c3ccncc3)nc2c1	inconclusive: 112 µM [inhibitor, partial curve]		
CSc1ccc(CNC(=O)c2cc3c(=O)[nH]c(C)cn3n2)cc1		inactive: -8.76%	
CCOc1ccccc1C(=O)N1CCCC2(C1)NC(=O)N(Cc1ccc(Cl)cc1)C2=O (stereo unspecified)	active: 79.4 µM		
CC(C)CNC(=O)c1ccc2nnc(-c3cc(C(F)(F)F)cc(C(F)(F)F)c3)n2c1	inconclusive: 44.7 µM [inhibitor, partial curve, poor fit]		
Cc1ccc(S(=O)(=O)N(C)Cc2ccccc2C(F)(F)F)cc1	active: 70.8 µM		
CCn1cnnc1CC1CCN(C(=O)CCCC(=O)n2nc(C)c3ccccc32)CC1	inconclusive: 44.7 µM [inhibitor, partial curve]		
O=C(Cc1c[nH]c2ccccc12)N1CCC(CCOc2ccccc2F)C1 (stereo unspecified)	inconclusive: 50.1 µM [inhibitor, partial curve, poor fit]		
CN1CCC(O)(C(=O)N2C[C@@H](C(=O)O)[C@H](c3ccc(F)cc3)C2)CC1	inconclusive: 89.1 µM [inhibitor, single point]		
O=C(c1cccc2[nH]ccc12)N1CCCC(n2cc(-c3nc(C4CC4)no3)nn2)C1 (stereo unspecified)	inconclusive: 50.1 µM [inhibitor, partial curve, poor fit]		
Cc1cc(=O)n(CC(=O)Nc2ccc(F)cc2F)c(-c2ccc(F)cc2)n1	inconclusive: 25.1 µM [inhibitor, partial curve, poor fit]		
O=C(Nc1nccs1)C1c2ccccc2C(=O)N(Cc2ccccc2)C12CCCC2 (stereo unspecified)	inconclusive: 89.1 µM [inhibitor, single point]		
O=C(NCc1ccc(-c2cccc(Cl)c2)o1)[C@H]1CCC[C@@H](O)C1	inconclusive: 50.1 µM [inhibitor, partial curve, poor fit]		
COc1ccc(CNC(=O)c2c[nH]c3ncccc23)cc1OC		inactive: -5.03% [at 172 µM]	
CCN(CC)C(=O)C[C@@H]1c2nc(NC(=O)c3cccc(F)c3)sc2C[C@@H]2[C@](C)(CO)[C@H](O)CC[C@]21C		inactive: -20.8%	
CN(CC(O)COc1ccccc1CN1CCCOCC1)C1CCCCC1 (stereo unspecified)	inconclusive: 89.1 µM [inhibitor, single point]		
COc1cccc(Nc2nccc3c(=O)cc(-c4ccccn4)oc23)c1	inconclusive: 14.1 µM [inhibitor, full curve, poor fit]		
O=C(Nc1cnc(-c2cccc(Cl)c2)nc1)c1ccc(F)cc1F	inconclusive: 50.1 µM [inhibitor, partial curve, poor fit]		
O=C(COc1ccc(F)cc1)N1CC(c2nnc(-c3ccncc3)o2)C2(CCOCC2)C1 (stereo unspecified)		inactive: -4.05%	
Cc1ccccc1C(=O)N1CCc2[nH]nc(C(=O)NCCCc3ccccc3)c2C1	inconclusive: 56.2 µM [inhibitor, partial curve, poor fit]		

SMILES	Potency	activity change, negative = cytotoxicity	outcome
O=C1NC2(CN(Cc3ccc(OC(F)(F)F)cc3)C2)Oc2ccccc21	inconclusive: 56.2 µM [inhibitor, partial curve, poor fit]		
Cc1cnc(C(=O)NC2C[C@H]3CC[C@@H](C2)N3C(=O)c2ccccc2C)cn1 (stereo partly specified)		inactive: 1.36%	
CN(Cc1ccc(F)cc1)C(=O)Nc1ccc(Cl)cc1	active: 89.1 µM		
CC1CCN([C@@H]2[C@H](O)[C@H](CO)O[C@@H]2CNC(=O)Nc2cccc(Cl)c2)CC1	inconclusive: 126 µM [inhibitor, partial curve, poor fit]		
CCCC(=O)N1Cc2ccccc2CC2(CCCN(Cc3ccc(O)cc3)C2)C1 (stereo unspecified)		inactive: -23.4%	
Cc1nnc([C@H]2CCN(C(=O)c3ccccc3)C2)o1			inactive [at 230 µM]
CC(C)c1noc([C@@H]2C[C@H]3C(=O)NCCCCCCN(C(=O)c4ccncc4)[C@H]3C2)n1	inconclusive: 89.1 µM [inhibitor, partial curve, poor fit]		
O=C(c1ccc(Cl)nc1)N1CCC2(CC1)CC(c1cccc(C(F)(F)F)c1)=NO2	inconclusive: 56.2 µM [inhibitor, partial curve, poor fit]		
CCOC(=O)c1csc(NC(=O)C2CC(=O)N(c3n[nH]c4ccccc34)C2)n1 (stereo unspecified)	inconclusive: 89.1 µM [inhibitor, single point]		
COc1ccc(-c2ccccc2C(=O)N2CCC(NC(=O)c3ccc(F)cc3)CC2)nn1			inactive
Cc1ccc2c(C(=O)N3CCN(C4CCCCC4)CC3)cc(NC(=O)C3CCC3)cc2n1	inconclusive: 70.8 µM [inhibitor, partial curve]		
CCOc1cc(=O)n2c(c1C(=O)NCc1ccccc1F)CCCCC2		inactive: -5.54%	
Cc1noc(C)c1[S+](=O)([O-])N1CCC2(CC1)CC(=O)c1ccccc1O2	inconclusive: 63.1 µM [inhibitor, partial curve, poor fit]		
COc1ccc2[nH]c(C(=O)N(CC3CC3)CC3CCCO3)c(C)c2c1 (stereo unspecified)	inconclusive: 50.1 µM [inhibitor, partial curve, poor fit]		
COc1ccc(Nc2ccnc(N3CCC(NC(=O)Cc4ccc(F)cc4)CC3)n2)cc1	active: 39.8 µM		
CCn1c(CO)nnc1C1CC(NC(=O)c2cccc3c2OCCO3)C1 (stereo unspecified)		inactive: 3.77%	
COc1ccc(-c2nccn3cc(C(=O)NCc4ccc(OC)c(OC)c4)nc23)cc1	inconclusive: 50.1 µM [inhibitor, partial curve, poor fit]		
CNC(=O)c1cc(C)nc2onc(C3CCCN3[S+](=O)([O-])c3ccc(C)cc3)c12 (stereo unspecified)		inactive: -1.6%	
CN1CCCC1COc1ccc2c(n1)CN(Cc1ccc(F)cc1)C(=O)CO2 (stereo unspecified)		inactive: -15.9% [at 172 µM]	
CC(=O)N1CCN(C[C@@H]2C=C(C)[C@H](Cc3nnc(-c4cncn4C)o3)C[C@H]2C(C)C)CC1	inconclusive: 50.1 µM [inhibitor, partial curve, poor fit]		
CNC(=O)c1cc(C)nc2onc(C3CCN(C(=O)c4ccc(C)cc4)C3)c12 (stereo unspecified)		inactive: -11.7%	
CN(C)C(=O)c1cc(-c2ccc(C(F)(F)F)cc2)nc2c1cnn2C	inconclusive: 70.8 µM [inhibitor, partial curve, poor fit]		

SMILES	Potency	activity change, negative = cytotoxicity	outcome
COc1ccc(NC(=O)N2CCC[C@H]2c2nc(-c3ccc(F)cc3)n[nH]2)c(OC)c1		inactive: -4.54%	
CN(Cc1cnn(-c2ccc(F)cc2)c1)c1cc(C2CC(O)C2)ncn1 (stereo unspecified)	active: 28.2 µM		
CN(Cc1cccnc1)c1nc2c(c(=O)[nH]1)CCN(Cc1cc(Cl)ccc1F)CC2	inconclusive: 79.4 µM [inhibitor, single point]		
CCN1CCN(C(=O)c2cn3cc(-c4ccc(F)cc4)sc3n2)CC1		inactive: 1.6%	
CCn1ccc(C(=O)N2CC(Oc3cccc(-c4nc(C)no4)c3)C2)n1	inconclusive: 50.1 µM [inhibitor, partial curve, poor fit]		
O=C1NCCCCCCN(C(=O)C2CCCCC2)[C@H]2CCCC[C@@H]12	inconclusive: 28.2 µM [inhibitor, full curve]		
Cc1nc(N2CCCCC2)n(CC(=O)Nc2cccc(Br)c2)c(=O)c1C	inconclusive: 25.1 µM [inhibitor, full curve]		
Cc1nn(C(=O)CCCC(=O)N2CCCC2c2nc(C3CCOCC3)no2)c2ccccc12 (stereo unspecified)		inactive: -25%	
FC(F)(F)c1cccc(Nc2cnc3ccc(N4CCOCC4)nn23)c1	active: 89.1 µM		
COc1ccc(-c2cccc(CCOc3cnc4c(ccn4CC(=O)O)c3)c2)c(C)c1	inconclusive: 112 µM [inhibitor, partial curve, poor fit]		
COCc1ccc2c(c1)c(OC(C)(C)C(=O)NCC[S+](C)(=O)[O-])nn2Cc1ccccc1		inactive: -26%	
Cc1ccc(-n2nc3n(c2=O)CCN(C(=O)Nc2ccc(Cl)cc2)C3)cc1	inconclusive: 79.4 µM [inhibitor, partial curve, poor fit]		
O=C(OCc1ccccc1)N1CCOCC12CCN(Cc1ccc(F)cc1)CC2	active: 70.8 µM		
O=C(c1csc(Cc2ccccc2)n1)N1CC[C@H](CO)[C@@H](O)C1		inactive: 3.61%	
CC(=O)NCc1nnc2n1C(C(=O)N1CCN(C)CC1)CC2 (stereo unspecified)		inactive: -19% [at 172 µM]	
O=C1Nc2ccc(-c3ccccc3)cc2C(=O)N2CC[C@H](NS(=O)(=O)c3cccs3)[C@@H]12	inconclusive: 39.8 µM [inhibitor, full curve, poor fit]		
Cc1ccc(S(=O)(=O)N2CCN(C3CCN(CCC(C)C)C3=O)CC2)cc1F (stereo unspecified)	inconclusive: 56.2 µM [inhibitor, partial curve, poor fit]		
CN(C)C(=O)N(C)Cc1cccc(N2CCN(C(=O)c3c(Cl)cccc3Cl)CC2)c1F	inconclusive: 50.1 µM [inhibitor, partial curve, poor fit]		
CN(C)C1CCN(c2nccc(C3(c4ccccc4Cl)CCNCC3)n2)C1 (stereo unspecified)	inconclusive: 44.7 µM [inhibitor, partial curve, poor fit]		
Cc1ccc(-n2c(C3CCN(C(=O)c4ccc(C)c(C)c4)CC3)n[nH]c2=O)cc1		inactive: -11%	
O=C(NCC(F)F)c1cc(-c2cccs2)c2cccn2n1	inconclusive: 63.1 µM [inhibitor, full curve, poor fit]		
OC[C@@H]1CN(c2ccc(-c3nc(-c4cccc(C(F)(F)F)c4)no3)cn2)C[C@H]1CO	inconclusive: 44.7 µM [inhibitor, partial curve, poor fit]		
